Reference: patent EP4684807A1, “LINKER AND USE THEREOF IN LIGAND DRUG CONJUGATE” (priority 2023, dated 2024)

B1: ADC-1D: "control ADC-1D" incubated in human plasma beside ADC-20C (conjugate)
heavy: QVQLQQPGTEVVKPGASVKLSCKASGFTFPLYWMHWVRQRPGRGLEWIGRIIPIFGHTKYNEKFKNKATLTADESSSTAYMELRSLTSDDSAVYYCARGGYYYYPREGFLDYWGQGTSVTVSS[not shown - human IgG1 constant region]
light: DIVMTQSPASLSVSPGERASISCRSSQSVDYSGDSYMNWYQQKPGQSPRLLIYAASDRESGVPDRFSGSGSGTDFTLKISRVEEEDAGTYYCQQSREDPFTFGQGTKVDIKRTVAAPSVFIFPPSDEQLKSGTASVVCLLNNFYPREAKVQWKVDNALQSGNSQESVTEQDSKDSTYSLSSTLTLSKADYEKHKVYACEVTHQGLSSPVTKSFNRGEC
B2: ADC-2D (conjugate)
heavy: B1 heavy
light: B1 light

Experiment: Plasma stability test, free drug (MMAE) by LC-MS/MS
Format: in vitro ADME
Conditions: human plasma, 37°C, 100 µg/mL
Experimental: Free drugs were analyzed by LC-MS/MS.
The free drug standard was prepared as a 1 mg/mL stock solution in DMSO. The free drug stock solution was diluted in blank plasma matrix by gradient dilution to prepare a standard curve with concentrations ranging from 1.0 to 100 ng/mL, as well as QC samples at three concentration levels, namely 3.0 ng/mL (LQC), 40.0 ng/mL (MQC), and 75.0 ng/mL (HQC).
100 µL of each of the study sample, standard curve sample, and QC sample were mixed with acetonitrile. The samples were thoroughly mixed by vortex for 1 minute and centrifuged in a centrifuge at 12000 rpm for 5 minutes to precipitate proteins. The supernatant was transferred to a 96-well plate for LC-MS/MS analysis.
LC-MS instrument detection method for free drugs
Data were acquired and analyzed using ChromeleonTM software.

Molecule	MMAE release ratio (%) (2h)	MMAE release ratio (%) (8h)	MMAE release ratio (%) (1d)	MMAE release ratio (%) (4d)	MMAE release ratio (%) (7d)	MMAE release ratio (%) (time 0)
B1	A (A < 1)	A (A < 1)	A (A < 1)	A (A < 1)	A (A < 1)	0%
B2	A (A < 1)	A (A < 1)	A (A < 1)	A (A < 1)	A (A < 1)	0%
